Screen size: about 310,000 compounds; about 2,200 (0.71%) showed an effect of 50% or more. Effects have a minus sign here. Some of the results follow.
Target: human ether-à-go-go-related gene (hERG) potassium channel (human, UniProt Q12809)
Test: primary screen, population patch clamp on CHO cells stably expressing hERG

human ether-à-go-go-related gene (hERG) potassium channel, sequence (Q12809 whole entry, looked up): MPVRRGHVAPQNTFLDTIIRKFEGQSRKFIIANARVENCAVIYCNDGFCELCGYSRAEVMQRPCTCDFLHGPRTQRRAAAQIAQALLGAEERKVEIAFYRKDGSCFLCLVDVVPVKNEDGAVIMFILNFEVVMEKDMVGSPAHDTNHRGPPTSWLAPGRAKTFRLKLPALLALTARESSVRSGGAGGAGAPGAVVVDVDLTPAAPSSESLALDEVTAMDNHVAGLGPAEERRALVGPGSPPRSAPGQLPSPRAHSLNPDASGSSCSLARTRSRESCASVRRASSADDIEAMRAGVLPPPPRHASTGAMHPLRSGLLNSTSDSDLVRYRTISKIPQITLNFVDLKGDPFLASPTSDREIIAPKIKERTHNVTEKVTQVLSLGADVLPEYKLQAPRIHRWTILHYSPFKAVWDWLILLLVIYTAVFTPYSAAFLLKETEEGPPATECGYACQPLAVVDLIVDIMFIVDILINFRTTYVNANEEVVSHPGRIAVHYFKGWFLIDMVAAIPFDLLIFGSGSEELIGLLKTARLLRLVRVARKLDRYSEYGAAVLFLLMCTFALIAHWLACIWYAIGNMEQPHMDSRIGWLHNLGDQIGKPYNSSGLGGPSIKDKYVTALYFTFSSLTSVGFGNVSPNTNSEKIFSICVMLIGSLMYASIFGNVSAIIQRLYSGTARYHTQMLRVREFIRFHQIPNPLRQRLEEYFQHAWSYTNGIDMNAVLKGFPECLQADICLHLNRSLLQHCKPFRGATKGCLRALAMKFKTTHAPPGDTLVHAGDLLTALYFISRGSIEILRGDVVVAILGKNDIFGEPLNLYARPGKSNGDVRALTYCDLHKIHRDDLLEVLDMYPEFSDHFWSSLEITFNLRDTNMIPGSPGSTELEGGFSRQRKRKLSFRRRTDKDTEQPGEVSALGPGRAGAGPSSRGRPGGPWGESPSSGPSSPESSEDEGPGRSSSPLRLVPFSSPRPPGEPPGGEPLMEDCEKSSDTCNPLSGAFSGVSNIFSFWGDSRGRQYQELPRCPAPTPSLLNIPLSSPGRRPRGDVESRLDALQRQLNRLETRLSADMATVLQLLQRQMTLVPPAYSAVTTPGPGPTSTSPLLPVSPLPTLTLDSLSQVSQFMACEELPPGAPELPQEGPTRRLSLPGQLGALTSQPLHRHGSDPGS

| Compound | hERG current change (%, negative = inhibition) at 1uM [%] |
| --- | --- |
| CNC(=S)N/N=C(\C)c1ccc(C)c(C)c1 | -0.582 |
| Cn1nc(C(=O)N2CCN(c3cccc(Cl)c3)CC2)c2c1-c1ccccc1S(=O)(=O)C2 | -30.8 |
| O=C(Nc1cnc2ccccc2c1)c1cccnc1 | 16.9 |
| CC(=O)Nc1csc2ccccc12 | 4.39 |
| C/C(=N\NC(=O)C(O)c1ccccc1)c1ccc(Cl)s1 (stereo not shown) | 3.85 |
| CCCC(=O)NCCCc1nc2ccccc2n1CC | 8.43 |
| Cc1cc(C)c(NC(=O)COc2ccccc2C(=O)Nc2ccc3c(c2)oc2ccccc23)c(C)c1 | -0.166 |
| O=C(Nc1cccc(-n2cnnn2)c1)c1ccccc1Br | 9.08 |
| Cc1cc(C)c2nc(N3CCCC(C(=O)NCCN4CCOCC4)C3)sc2c1 (stereo not shown) | 1.89 |
| CC(=O)NCCNC(=O)c1ccc(NC2=NC3CS(=O)(=O)CC3S2)cc1 (stereo not shown) | 7.25 |
| O=C(NCc1ccncc1)c1ccc(Cn2cc(C(F)(F)F)ccc2=O)cc1 | 11.8 |
| O=C(Nc1ccc(N2CCN(C(=O)c3ccccc3F)CC2)cc1)c1cncc(Br)c1 | 4.97 |
| O=C(COC(=O)c1cccc([N+](=O)[O-])c1)c1ccc2c(c1)OCO2 | 6.17 |
| COc1ccc(C(=O)NCCn2cc(SCC(N)=O)c3ccccc32)cc1 | 7.97 |
| CCN1CCN(C(=O)C2CCN(S(=O)(=O)c3ccc(Br)cc3)CC2)CC1 | 6.11 |
| CCNC(=S)N1CCC(C(=O)c2ccc(Cl)cc2)CC1 | 6.08 |
| Cc1cc(C)c(S(=O)(=O)NCc2ccc3c(c2)OCO3)cc1C | 9.23 |
| COc1ccc(CCNC(=O)C2CCCN(c3nc(C)cc(C)n3)C2)cc1 (stereo not shown) | 17.9 |
| COc1ccc(C)cc1NC(=O)CSc1ccc(Cl)cc1 | 9.34 |
| COc1cc2c(cc1NC(=O)c1ccncc1)oc1ccccc12 | 0.154 |
| NNC(=O)Cn1c(-c2ccccn2)nc2ccccc21 | 14.1 |
| CC(C)c1ccc(NC(=O)[C@H](Cc2c[nH]c3ccccc23)NC(=O)[C@@H]2Cc3ccccc3CN2)cc1 | 13 |
| Cc1c(Cc2ccccc2)c(=O)oc2c(C)c(OC(C)C(=O)NCC3CCC(C(=O)O)CC3)ccc12 (stereo not shown) | 13.9 |

| Compound | hERG current change (%, negative = inhibition) at 1uM [%] |
| --- | --- |
| COC(=O)c1ccc(S(=O)(=O)c2ccc(C(=O)OC)s2)s1 | 13.1 |
| CCOC(=O)CN1C(=N)N(c2nc(NC(C)C)nc(NC(C)C)n2)CC1=O | -22.5 |
| Cc1cccc(NC(=O)Cn2nnc3ccccc32)c1 | 12.5 |
| CCC(C)N(C(=O)COc1ccc(Br)cc1C=O)C1CCS(=O)(=O)C1 (stereo not shown) | 0.773 |
| Cc1nn(-c2ccc(Cl)c(Cl)c2)c(=O)c2ccccc12 | 5.47 |
| COC(=O)c1ccc(C2C(C#N)=C(N)Oc3cc(N)ccc32)cc1 (stereo not shown) | 9.9 |
| CCCCn1c(N)c(N(CC(C)C)C(=O)c2cccc(S(=O)(=O)N(C)c3ccccc3)c2)c(=O)[nH]c1=O | 10.2 |
| Cc1cc(C)cc(N(CCC#N)C(=O)CSc2n[nH]c(N)n2)c1 | 11.6 |
| CC(=O)Nc1ccc(S(=O)(=O)NCC(=O)OCC(=O)NC(=O)C2CCCCC2)cc1 | 20.4 |
| Cl.Nc1nc(Nc2ccccc2)nc2ccccc12 | -2.62 |
| Cc1nc2cc(NC(=O)N3CC4(C)CC3CC(C)(C)C4)ccc2n1C (stereo not shown) | -9.66 |
| O=C(NN=C1CCCC1)c1cccc(Br)c1 | 5.26 |
| O=C(Nc1ccc(N2CCCC2)cc1)c1ccc(Br)o1 | 1.75 |
| O=C1CN(S(=O)(=O)c2ccccc2C(F)(F)F)CCN1 | 12 |
| CCN(C(=O)CCS(=O)(=O)c1cccc2nonc12)c1ccc(F)cc1 | 7.31 |
| CC(=O)Nc1ccc(-c2cc(C(=O)O)c3ccccc3n2)cc1 | 16.8 |
| COc1ccccc1-c1nc(-c2ccc(C)nc2OC)no1 | 11.9 |
| CC1(C)Cc2c(cnn2-c2ccccc2)C(=O)/C1=N\NC(=O)c1ccccc1N | 8.6 |
| CCOC(=O)C1CCN(C(=O)c2ccc3c(Cl)c4c(nc3c2)CCCC4)CC1 | -2.4 |
| CC(=Nc1ccccc1O)c1sc2ccccc2c1O | 12.6 |
| C=CCNC(=S)NNC(=O)c1ccc([N+](=O)[O-])cc1 | 13.8 |
| COc1ccc(/C(O)=C2/C(=O)C(=O)N(Cc3cccnc3)C2c2ccco2)cc1OC (stereo not shown) | 11.9 |
| CC(=O)Oc1ccccc1N(C(C)=O)S(=O)(=O)c1ccc(C)cc1 | 12.2 |

| Compound | hERG current change (%, negative = inhibition) at 1uM [%] |
| --- | --- |
| Cc1ccc2nc(-c3ccc(NC(=O)CCN4C(=O)c5ccccc5C4=O)cc3)sc2c1 | -2.15 |
| COn1c(=O)c(=O)n(O)c2ccccc21 | 6.8 |
| C=CCN1C(=O)C2C(C(=O)NC)C3C=CC2(O3)C1C(=O)NCc1ccc(OC)cc1 (stereo not shown) | 2.15 |
| C/C(CC(=O)Nc1ccc2c(c1)OCCO2)=N\NC(=O)c1ccccc1Cl | 14.4 |
| CSc1nc2c(c(=O)[nH]1)C(c1cccc(Cl)c1Cl)CC(=O)N2 (stereo not shown) | 18.8 |
| CN(CCOc1ccc(Cl)cc1)Cc1cccc(S(=O)(=O)N(C)C)c1 | -11.9 |
| COc1ccc(-c2cc(-c3n[nH]c(=S)n3-c3ccccc3OC)[nH]n2)cc1 | 11.1 |
| C/C(=N/NC(=O)c1ccncc1)c1c[nH]c2ccccc12 | 11.1 |
| O=C(CC1(O)C(=O)Nc2ccccc21)c1ccc(-n2cccc2)cc1 (stereo not shown) | 9.56 |
| Cc1c(NCc2cccnc2)cccc1C(=O)O | 11 |
| CN1CCC[C@H]1c1cccnc1 | 17.5 |
| CCOc1ccc2nc(NC(=O)c3ccc(OCC4CCCO4)cc3)sc2c1 (stereo not shown) | -4.12 |
| COc1ccccc1NC(=O)CCN1CCN(c2ccc(Cl)cc2)CC1 | -4.76 |
| CCN(CC(=O)Nc1c(F)cccc1F)C(=O)CCC(=O)c1ccc(F)cc1 | 11.6 |
| O=C(c1cccs1)N1CCC(c2nc3c(nnn3Cc3ccccc3)c(=O)[nH]2)CC1 | 14.7 |
| O=C(O)C(Cc1ccc(Cl)cc1)NS(=O)(=O)c1ccc(Cl)cc1 (stereo not shown) | 18.8 |
| CCOC(=O)c1c(C)nn(-c2ccc(NC(=O)/C=C/C(=O)O)cc2)c1C | 13.8 |
| Cc1ccc(S(=O)(=O)c2nc(-c3ccc(F)cc3)oc2SCC(N)=O)cc1 | 0.367 |
| CCCCc1cc(=O)oc2cc(C)cc(OCC(=O)NCCN3CCOCC3)c12 | -2.11 |
| Cc1c(C(=O)NCCCN2CCCCC2)oc2ccc3c(c12)C(O)CC1(CCCCC1)O3 (stereo not shown) | 3.43 |
| O=C(NNC(=O)c1ccc(Cl)s1)c1csc(N2CCOCC2)n1 | 8.72 |
| CCOc1ccccc1N1CCN(C(=O)c2ccncc2)CC1 | 5.06 |
| CC(C)N1C(=O)/C(=C/c2nc3ccccc3c(=O)n2-c2ccccc2)c2ccccc21 | 4.36 |

| Compound | hERG current change (%, negative = inhibition) at 1uM [%] |
| --- | --- |
| COc1ccc(OC)c(/C=C/C(=O)N(C)CC(=O)Nc2ccc(C)cc2)c1 | -5.02 |
| NS(=O)(=O)c1ccc(N/N=C/c2cn(-c3ccccc3)nc2-c2cccs2)cc1 | 11.4 |
| Cc1ccccc1CC(=O)N1CCOCC1 | 11.5 |
| Cn1cccc1CN1CCN(C(=O)COc2ccccc2)CC1 | 9.91 |
| Cc1cccc(CC(=O)NCCn2c(C)cc3ccccc32)c1 | 7.36 |
| CCOc1ccccc1CNc1ccc(N2CCOCC2)c(C(=O)O)c1 | -5.58 |
| O=C(Nc1cc(S(=O)(=O)N2CCOCC2)ccc1Cl)c1cc(=O)c2ccccc2o1 | 15.6 |
| CC1CN(CC(=O)NC(C)c2ccccc2)CC(C)O1 (stereo not shown) | 15.5 |
| Cc1onc(-c2ccc(Cl)cc2Cl)c1C(=O)/C=C/N(C)C | 9.02 |
| COC(=O)c1ccc(CSc2nc(-c3ccccc3)cs2)o1 | 13.6 |
| O=C(/C=C/c1ccccc1)Nc1cc(S(=O)(=O)N2CCOCC2)ccc1N1CCCC1 | 15.7 |
| O=C1CC(=O)N(CCc2ccccc2)C(=O)N1CCc1ccccc1 | 5.24 |
| CC(=O)Nc1ccc(NC(=O)C(C)OC(=O)C2(c3ccc(F)cc3)CCCC2)cc1 (stereo not shown) | 0.852 |
| CCOc1cc(/C=N/N2CCOCC2)ccc1OCc1ccc(C(=O)OC)o1 | 3.55 |
| CCCCC(=O)Nc1cccc(-c2nc3ncccc3o2)c1 | -2.95 |
| Cc1ccc(NC(=S)NNC(=O)c2c(Cl)c(C)nn2C)cc1 | 9.97 |
| Cc1cc2ccccn2c1C(=O)c1cccc(S(=O)(=O)N2CCOCC2)c1 | 16.9 |
| CCCc1nc(N)c(C#N)c(N)c1C#N | 8.26 |
| C[Si](C)(C)n1ccnc1 | 13.6 |
| NC(=S)N(c1ccccc1)c1ccccc1 | 7.38 |
| COc1cccc(NC(=S)NCc2ccco2)c1 | -1.17 |
| COc1ccc(C(=O)Nc2ccc(N3CCN(C(=O)C(C)C)CC3)cc2)cc1[N+](=O)[O-] | 15.9 |

Reference: publication PMC4336329 (PLoS ONE, 2015)
